In the supplement of paper PMC6828730:
This is one part of the list. Most values come without repeats; read them as rough.

How the values were obtained:
[1] = test system: hiPSC-derived cardiomyocytes; experiment: time to death of most cells in well after compound addition (days); higher = less cardiotoxic; conditions: screen: 1; 10 µM
[2] = test system: hiPSC-derived cardiomyocytes; experiment: time to death of most cells in well after compound addition (days); higher = less cardiotoxic; extreme values may be limits of the assay; conditions: 10 µM

Compound	time to death of most cells in well [1]	time to death of most cells in well ([2]; screen: 2)	time to death of most cells in well ([2]; screen: 3)	time to death of most cells in well ([2]; screen: 4)
COc1ccc(Cl)cc1NC(=O)Nc1cc(C)nc2ccccc12	> 7	> 7	6.5	> 7
Cc1[nH]c2ccccc2c1C1=C(NCCc2ccc(F)cc2)C(=O)N(C)C1=O	6.5	2	> 7	> 7
Cc1c[nH]c2nc(Nc3ccc(N4CCN(C)CC4)c(F)c3)nc(-c3cccc(CC#N)c3)c12	> 7	3	4	3
CS(=O)(=O)c1ccc(-c2cnc(N)c(C(=O)Nc3ccccc3)n2)cc1	> 7	> 7	> 7	> 7
CCc1cc(Nc2nccc(-c3c(-c4ccc(OC)c(C(=O)Nc5c(F)cccc5F)c4)nc4ccccn34)n2)c(OC)cc1N1CCC(N2CCN(S(C)(=O)=O)CC2)CC1	6.5	> 7	> 7	> 7
CN1CCN(Cc2ccc(-c3cnc4[nH]cc(-c5ccc6[nH]ccc6c5)c4c3)cc2)CC1	2.5	1	0.5	2
CCNC(=O)Nc1ccc(-c2nc3c(c(N4CCOC[C@@H]4C)n2)CCN(C2COC2)C3)cc1	3	2.5	> 7	> 7
CN(c1ccccc1CNc1nc(Nc2ccc3c(c2)CC(=O)N3)ncc1C(F)(F)F)S(C)(=O)=O	> 7	6	> 7	> 7
NCC(=O)Nc1ccc(-n2nc(C(F)(F)F)cc2-c2ccc3c(ccc4ccccc43)c2)cc1	2	3.5	4	> 7
Cc1nc(NC(=O)N2CCC[C@H]2C(N)=O)sc1-c1ccnc(C(C)(C)C(F)(F)F)c1 [Alpelisib (BYL719)]	> 7	6	> 7	> 7
CCN(CC)CCCCNc1ncc2cc(-c3cc(OC)cc(OC)c3)c(NC(=O)NC(C)(C)C)nc2n1	4	2.5	6	> 7
CC(C)(C)n1nc(-c2ccc(Cl)cc2)c2c(N)ncnc21	2	1.5	3	> 7
